From patent US20090232811A1 (Hoffmann-La Roche, published 2009)

T1: recombinant human ANGPT2 (full-length ANGPT2-His protein, R&D Systems) (human, UniProt O15123 19-496)
T1 construct: Bought protein; also called huANGPT2; human Angiopoietin-2; not shown: His tag
T1 sequence (looked up): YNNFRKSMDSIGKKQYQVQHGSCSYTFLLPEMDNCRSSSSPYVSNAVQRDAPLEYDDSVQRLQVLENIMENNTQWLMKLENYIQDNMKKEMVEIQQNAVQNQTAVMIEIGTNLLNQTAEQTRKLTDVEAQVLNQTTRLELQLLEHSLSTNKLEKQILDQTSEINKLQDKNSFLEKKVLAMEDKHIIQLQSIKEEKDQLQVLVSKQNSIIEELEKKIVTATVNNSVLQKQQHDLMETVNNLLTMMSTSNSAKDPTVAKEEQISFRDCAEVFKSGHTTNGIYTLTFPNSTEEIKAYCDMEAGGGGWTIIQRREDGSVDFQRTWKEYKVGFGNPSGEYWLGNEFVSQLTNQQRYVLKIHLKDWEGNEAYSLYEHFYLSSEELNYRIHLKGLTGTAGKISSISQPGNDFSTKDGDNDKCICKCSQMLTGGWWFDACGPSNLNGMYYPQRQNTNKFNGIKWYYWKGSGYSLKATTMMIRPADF


Tests used:
[1] = biological target: T1, recombinant human ANGPT2 (full-length …); assay: SPR (Biacore), ANGPT2 binding assay
[2] = biological target: T1, recombinant human ANGPT2 (full-length …); assay: SPR (Biacore), ANGPT2 binding assay; estimated, mean from two determinations
[3] = biological target: T1, recombinant human ANGPT2 (full-length …); assay: SPR (Biacore T100), antibody captured, ANGPT2-His in solution; relative estimation
[4] = biological target: T1, recombinant human ANGPT2 (full-length …); assay: ANGPT2 binding ELISA (plate coated with recombinant human ANGPT2) [right panel]
[5] = biological target: T1, recombinant human ANGPT2 (full-length …); assay: ANGPT2 binding ELISA (plate coated with recombinant human ANGPT2) [left panel]

Kd [1] [pM]	koff [1] [s⁻¹]	kon [1] [M⁻¹ s⁻¹]	Kd [2] [pM]	Kd [3] [pM]	EC50 [4] [µg/mL]	EC50 [5] [µg/mL]	Binder
445	0.00236	5.29e+06	~45				<ANGPT2> VL-VH(G)/CL-CH1(G) exchange antibody (antibody, Monospecific, bivalent exchange antibody with an additional glycine at the C-terminus of the exchanged Fab domains; also called <ANGPT2> VL-VH(G)/CL-CH1(G) antibody) heavy: not shown light: EVQLVQSGGGVVQPGRSLRLSCAASGFTFSSYGMHWVRQAPGKGLEWVSYISSSGSTIYYADSVKGRFTISRDNAKNSLYLQMNSLRAEDTAVYYCARDLLDYDILTGYGYWGQGTLVTVSSASTKGPSVFPLAPSSKSTSGGTAALGCLVKDYFPEPVTVSWNSGALTSGVHTFPAVLQSSGLYSLSSVVTVPSSSLGTQTYICNVNHKPSNTKVDKKVEPKSGC
				13	0.083		monospecific, bivalent <ANGPT2> VL-VH/CL-CH1 exchange antibody (antibody, HC* = VL-CL-Hinge-CH2-CH3; LC* = VH-CH1; also called <ANGPT> VL-VH/CL-CH1 exchange antibody; VL-VH/CL-CH1 exchange <ANGPT2> antibody Mab536) heavy: not shown light: EVQLVQSGGGVVQPGRSLRLSCAASGFTFSSYGMHWVRQAPGKGLEWVSYISSSGSTIYYADSVKGRFTISRDNAKNSLYLQMNSLRAEDTAVYYCARDLLDYDILTGYGYWGQGTLVTVSSASTKGPSVFPLAPSSKSTSGGTAALGCLVKDYFPEPVTVSWNSGALTSGVHTFPAVLQSSGLYSLSSVVTVPSSSLGTQTYICNVNHKPSNTKVDKKVEPKSC
	0.0002	526000	~38	12		0.0984	wildtype <ANGPT2> antibody (antibody, Human IgG1/kappa, from WO 2006/045049; also called <ANGPT2> wildtype antibody; original wildtype <ANGPT2> antibody) heavy: EVQLVQSGGGVVQPGRSLRLSCAASGFTFSSYGMHWVRQAPGKGLEWVSYISSSGSTIYYADSVKGRFTISRDNAKNSLYLQMNSLRAEDTAVYYCARDLLDYDILTGYGYWGQGTLVTVSS[in this place human IgG1 constant region] light: not shown
